Our source for the Kd values is publication PMC11805834 (Applied Microbiology and Biotechnology, 2025).

By Kd is commonly meant the concentration at which binding is half-saturated. Read a low Kd as a tighter complex.

This assay has as its target T1, mouse CD80-Fc fusion protein (mouse, UniProt Q00609 38-246).
T1 sequence: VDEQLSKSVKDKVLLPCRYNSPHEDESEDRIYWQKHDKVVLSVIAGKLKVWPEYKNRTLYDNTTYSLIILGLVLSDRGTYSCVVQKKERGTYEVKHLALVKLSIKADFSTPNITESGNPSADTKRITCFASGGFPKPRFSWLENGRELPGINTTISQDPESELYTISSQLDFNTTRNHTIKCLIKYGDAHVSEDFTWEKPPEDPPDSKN
The assay can be described thus: SPR. In general terms: In SPR one partner is held on a chip, and binding of the other changes the refractive index at the surface.

B1: Mouse CTLA-4 protein with His tag (receptor)
chain: not shown
B1 gave a Kd of 4.21 nM.
